{"source": "paper PMC5473854", "about": "“Structure of the human TRiC/CCT Subunit 5 associated with hereditary sensory neuropathy” (Scientific Reports, 2017)", "proteins": {"B1": {"name": "human CCT[…]R mutant, homo-oligomeric complex (natural protein)", "chain": "not shown", "notes": "T-complex protein 1 subunit epsilon (TRiC/CCT subunit 5, CCT5), human, with the disease-associated mutation H147R (hereditary sensory neuropathy); made from the CCT5 plasmid; Crystallised with ADP; same double homo-octameric ring arrangement as the wild type; The mutation occurs in patients (autosomal recessive mutilating sensory neuropathy); The His tag is surmised from the Histrap step; also …"}}, "target": "the molecule itself", "test": "crystal structure; crystallised in complex with 5.0 mM ADP, closed state; sitting-drop vapor diffusion; 0.1 M sodium acetate, 0.04 M citric acid, 0.06 M Bis-Tris propane pH 6.4, 25% (w/v) PEG 400; space group P 4 21 2, 4 subunits per asymmetric unit", "data": [{"protein": "B1", "values": [{"measurement": "stoichiometry N", "result": 16, "unit": "subunits"}]}]}
